In PMC1513213:
Results are given in words; binding and its absence hold for the method and conditions named. Binding seen in cells or lysates may run through a third protein. Some entries that bind do so weakly or less than the wild type. Tags and fused reporters may be left off the sequences shown.

Amino acid sequences for entries named in this document (tags omitted).
UniProt O75410: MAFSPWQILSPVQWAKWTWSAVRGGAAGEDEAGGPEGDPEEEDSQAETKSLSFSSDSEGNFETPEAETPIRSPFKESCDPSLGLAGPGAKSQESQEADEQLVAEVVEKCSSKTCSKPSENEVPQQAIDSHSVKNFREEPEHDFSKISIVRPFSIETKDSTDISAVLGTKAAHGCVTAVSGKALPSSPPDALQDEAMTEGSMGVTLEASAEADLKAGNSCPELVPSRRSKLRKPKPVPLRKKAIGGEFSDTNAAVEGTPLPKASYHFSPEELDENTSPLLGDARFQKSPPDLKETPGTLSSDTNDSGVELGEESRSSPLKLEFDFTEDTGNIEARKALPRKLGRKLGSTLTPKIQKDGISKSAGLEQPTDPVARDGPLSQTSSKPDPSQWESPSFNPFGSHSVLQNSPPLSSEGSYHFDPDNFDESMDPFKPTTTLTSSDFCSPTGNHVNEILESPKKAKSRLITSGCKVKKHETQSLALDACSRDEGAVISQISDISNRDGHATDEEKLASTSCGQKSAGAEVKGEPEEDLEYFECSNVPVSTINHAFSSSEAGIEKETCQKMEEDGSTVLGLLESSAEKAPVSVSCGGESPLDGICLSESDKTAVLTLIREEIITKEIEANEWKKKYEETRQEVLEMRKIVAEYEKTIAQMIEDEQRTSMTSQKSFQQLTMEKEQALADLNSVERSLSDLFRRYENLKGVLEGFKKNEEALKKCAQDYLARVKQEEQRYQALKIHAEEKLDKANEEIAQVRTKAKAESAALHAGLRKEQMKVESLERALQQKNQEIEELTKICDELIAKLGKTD
UniProt P31946: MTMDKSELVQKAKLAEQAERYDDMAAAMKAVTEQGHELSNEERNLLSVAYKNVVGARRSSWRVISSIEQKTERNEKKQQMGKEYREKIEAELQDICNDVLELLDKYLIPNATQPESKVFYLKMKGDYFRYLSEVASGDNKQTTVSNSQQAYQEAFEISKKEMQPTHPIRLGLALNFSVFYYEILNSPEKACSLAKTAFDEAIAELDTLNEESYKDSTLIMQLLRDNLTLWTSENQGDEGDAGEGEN

T1: LET-756::GFP (C. elegans) (UniProt Q11184)
T1 sequence: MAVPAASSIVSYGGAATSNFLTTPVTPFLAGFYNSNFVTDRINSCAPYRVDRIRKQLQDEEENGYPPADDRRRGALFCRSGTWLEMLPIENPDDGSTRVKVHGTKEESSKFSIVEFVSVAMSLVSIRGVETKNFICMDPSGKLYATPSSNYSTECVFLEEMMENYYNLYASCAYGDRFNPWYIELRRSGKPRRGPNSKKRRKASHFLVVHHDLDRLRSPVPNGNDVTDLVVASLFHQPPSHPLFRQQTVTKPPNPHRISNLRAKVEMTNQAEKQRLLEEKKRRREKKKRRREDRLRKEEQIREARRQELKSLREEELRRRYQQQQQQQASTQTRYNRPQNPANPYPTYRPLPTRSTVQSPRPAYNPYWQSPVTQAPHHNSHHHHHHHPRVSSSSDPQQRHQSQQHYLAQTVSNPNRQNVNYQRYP

B1: HA-tagged RPS-16 (protein, UniProt Q22054 1-144)
chain: MTSTVQSVQTFGRKKTATAVAHCKKGQGLIKVNGRPLEFLEPQILRIKLQEPLLLVGKERFQDVDIRIRVSGGGHVAQIYAVRQALAKALVAYYHKYVDEQSKRELKNIFAAYDKSLLVADPRRRESKKFGGPGARARYQKSYR
B2: HA-tagged FTT-1/PAR-5 (protein, UniProt P41932 1-248)
chain: MSDTVEELVQRAKLAEQAERYDDMAAAMKKVTEQGQELSNEERNLLSVAYKNVVGARRSSWRVISSIEQKTEGSEKKQQLAKEYRVKVEQELNDICQDVLKLLDEFLIVKAGAAESKVFYLKMKGDYYRYLAEVASEDRAAVVEKSQKAYQEALDIAKDKMQPTHPIRLGLALNFSVFYYEILNTPEHACQLAKQAFDDAIAELDTLNEDSYKDSTLIMQLLRDNLTLWTSDVGAEDQEQEGNQEAGN
B3: HA-tagged FTT-2 (protein, UniProt Q20655 1-248)
chain: MSDGKEELVNRAKLAEQAERYDDMAASMKKVTELGAELSNEERNLLSVAYKNVVGARRSSWRVISSIEQKTEGSEKKQQMAKEYREKVEKELRDICQDVLNLLDKFLIPKAGAAESKVFYLKMKGDYYRYLAEVASGDDRNSVVEKSQQSYQEAFDIAKDKMQPTHPIRLGLALNFSVFFYEILNAPDKACQLAKQAFDDAIAELDTLNEDSYKDSTLIMQLLRDNLTLWTSDAATDDTDANETEGGN
B4: HA-tagged PAL-1 (protein, UniProt P34766 1-270)
chain: MSVDVKSDFSENESSSTPSPTTVPADVTWPHYPMMPFMQPHPLREKMLQPTFDPQIYGRWSQMGDTGFYGHPDLYPFGLPQLAANGQIPAVEAVDVKPPLSNGSSSSDSGMYPSPSDMMTPFPSTSSGAASSSELSAAAAAAANYQMRAATCYQQSVWPFMDYQQFQGFSWKMPLGNNHGKDRRSSSDGKTLPTGPGTNNVRVRTADKYRMVYSDYQRLELEKEFHTSPFITSDRKSQLSTMLSLTERQIKIWFQNRRAKDRRDKQKIRL
B5: HA-tagged RPL-6 (protein, UniProt P47991 1-217)
chain: MVGKRNLPVISRNFDLSPGVLRFSASRLRLKKGEKKPKFTKDTSAKLPKLQRNGTKFALGHSKTVTLRKTLTPGTVLIVLAGRHKGKRVVFLKQLPQSGLLLVTGPHKINGFPLRRIGQAFVIATSLKVNVSGVKIPEHINDEYFKRKSTAQKTGKNIFASGKTEYTVSEQRKKDIKTVDAPILAAIKKHPEHKFLFGYLGTRFSLGKNQYPHKMQF
B6: HA-tagged KIN-3 (protein, UniProt P18334 1-360)
chain: MPPIPSRARVYAEVNPSRPREYWDYEAHMIEWGQIDDYQLVRKLGRGKYSEVFEGFKMSTDEKVVVKILKPVKKKKIKREIKILENLRGGTNIITLLDVVKDPISRTPALIFEHVNNSDFKQLYQTLSDYDIRYYLYELLKALDFCHSQGIMHRDVKPHNVMIDAEKRELRLIDWGLAEFYHPRQDYNVRVASRYFKGPELLVDYQCYDYSLDMWSLGCMLASMIFRKEPFFHGHDNYDQLVRIAKVLGTDELYEYIARYHIDLDPRFNDILGRHSRKRWERFIHAENQHLVTPEALDFLDKLLRYDHAERLTAQEAMGHEYFRPVVEAHARANGTEQADGQGASNSASSQSSDAKIDGA
B7: HA-tagged C18A3.3 (protein, UniProt Q09958 1-340)
chain: MVRKMNKLAKRLASTSKSRQPEPESDSDGSEFDFDNAIEEKPMEAMDIEEVESDGDDDERELQAAFAAGLLKDGLNIQVAKKRPIINKSAEMKEKLAEITKDLPWVETLEVVTPHSEMDKKVENDDFQRELNFYKQAEKAVQIAYPRLLNLGIKVLRPTDYYAEMAKSDTHMQKVRKRLLGIQEMKERQEAFRRIREEKKFAVKVQKEVLAAKNTEKKNLAEAVKKHKKGMKQQLEDMLNNVKRHGLDQDDDAPTGAFGDRLGGRGGAGRGGAGRGGSMRNAGELKRKLKSDKFGYGGKKKGMKRNNKESFNDLFGAPRGGFGGRGRGGGRGGRGGRGRR

Target: T1, LET-756::GFP (C. elegans)
Test: co-IP; Cos-1 cells cotransfected with HA-tagged partner and LET-756::GFP, lysed 24 h later in triton buffer (10 mM Tris pH 7.4, 100 mM NaCl, 2.5 mM MgCl2, 1% triton, 1 mM EDTA, 10 mM DTT); immunoprecipitated with anti-GFP, blot with anti-HA then anti-GFP

| Molecule | binding |
| --- | --- |
| HA-tagged TACC1 (from UniProt O75410 1-805) | no binding |
| HA-tagged DAF-21 (from UniProt Q18688 1-702) | binds |
| HA-tagged 14-3-3β (from UniProt P31946 1-246) | binds |
| B1 | binds |
| B2 | binds |
| B3 | binds |
| B4 | binds |
| B5 | binds |
| B6 | binds |
| B7 | binds |
